The supplement of paper PMC4604168 (melanoma cell lines)
Some of the results follow. Many values rest on one well or one pass, so single values are uncertain.
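Also: cells treated in 1,536-well plates, then fixed and DAPI-stained, with nuclei counted from automated high-throughput microscope images.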

The molecules below were run on SkMel5 (assay: cell count relative to DMSO control; melanoma cells; higher = more viable cells). Details: library dose: standard library concentration; 72 h.
Molecule `Cc1ccc(Nc2nccc(N(C)c3ccc4c(C)n(C)nc4c3)n2)cc1S(N)(=O)=O` [Pazopanib] + CC(C)CCN1c2nc(Nc3cc(F)c(O)c(F)c3)ncc2N(C)C(=O)C1C [BID1870] (first compound 2 µM, partner dose 1 µM) has a cell count of 55.8%. With `Cc1ccc(Nc2nccc(N(C)c3ccc4c(C)n(C)nc4c3)n2)cc1S(N)(=O)=O` [Pazopanib] + CCc1ccc(CCOc2ccc(CC3SC(=O)NC3=O)cc2)nc1 [pioglitazone] (first compound 2 µM, partner dose 10 µM) the cell count was 93%. For `O=C(/C=C/c1cccnc1)NCCCCC1CCN(C(=O)c2ccccc2)CC1` + O=C1NC(=O)/C(=C/c2ccc(-c3ccc(F)cc3O)o2)S1 [AS252424] (first compound 0.05 µM, partner dose 5 µM), the cell count was 79%. `O=C(/C=C/c1cccnc1)NCCCCC1CCN(C(=O)c2ccccc2)CC1` + COc1ccc2c(c1)CCC1C2CCC2(C)C(NCCCCCCN3C(=O)C=CC3=O)CCC12 [U73122] (first compound 0.05 µM, partner dose 2 µM) was tested, and the cell count was 66.1%. `O=C(/C=C/c1cccnc1)NCCCCC1CCN(C(=O)c2ccccc2)CC1` + CCN(CC)CCCCNc1ncc2cc(-c3cc(OC)cc(OC)c3)c(NC(=O)NC(C)(C)C)nc2n1 [PD173074] (first compound 0.05 µM, partner dose 0.5 µM) showed a cell count of 85%. Work on `CC1(C)CCC(c2ccc(Cl)cc2)=C(CN2CCN(c3ccc(C(=O)NS(=O)(=O)c4ccc(N[C@H](CCN5CCOCC5)CSc5ccccc5)c(S(=O)(=O)C(F)(F)F)c4)cc3)CC2)C1` + O=C1NC(=O)/C(=C/c2ccc(-c3ccc(F)cc3O)o2)S1 [AS252424] (first compound 2 µM, partner dose 5 µM) yielded a cell count of 78.9%. `Cc1ccc(Nc2nccc(N(C)c3ccc4c(C)n(C)nc4c3)n2)cc1S(N)(=O)=O` [Pazopanib] + Oc1cc(-c2nc(-c3ccccc3)[nH]c2-c2ccncc2)ccc1Cl [L779450] (first compound 2 µM, partner dose 1 µM) showed a cell count of 55.1%. For `CC1(C)CCC(c2ccc(Cl)cc2)=C(CN2CCN(c3ccc(C(=O)NS(=O)(=O)c4ccc(N[C@H](CCN5CCOCC5)CSc5ccccc5)c(S(=O)(=O)C(F)(F)F)c4)cc3)CC2)C1` + COc1ccc2c(c1)CCC1C2CCC2(C)C(NCCCCCCN3C(=O)C=CC3=O)CCC12 [U73122] (first compound 2 µM, partner dose 2 µM), the cell count was 73.5%. With `Cc1ccc(Nc2nccc(N(C)c3ccc4c(C)n(C)nc4c3)n2)cc1S(N)(=O)=O` [Pazopanib] + O=C1NC(=O)/C(=C/c2ccc(-c3ccc(F)cc3O)o2)S1 [AS252424] (first compound 2 µM, partner dose 5 µM) the cell count was 74.3%. Work on `O=C(/C=C/c1cccnc1)NCCCCC1CCN(C(=O)c2ccccc2)CC1` + O=c1cc(-c2cccc3c2Sc2ccccc2S3)oc(N2CCOCC2)c1 [KU55933] (first compound 0.05 µM, partner dose 5 µM) yielded a cell count of 100%. `Cc1ccc(Nc2nccc(N(C)c3ccc4c(C)n(C)nc4c3)n2)cc1S(N)(=O)=O` [Pazopanib] + N#Cc1c(O)c2c(-c3ccc(-c4ccccc4O)cc3)csc2[nH]c1=O [A769662] (first compound 2 µM, partner dose 10 µM) showed a cell count of 111%. For `O=C(/C=C/c1cccnc1)NCCCCC1CCN(C(=O)c2ccccc2)CC1` + Oc1cc(-c2nc(-c3ccccc3)[nH]c2-c2ccncc2)ccc1Cl [L779450] (first compound 0.05 µM, partner dose 1 µM), the cell count was 65.5%. Work on `CC1(C)CCC(c2ccc(Cl)cc2)=C(CN2CCN(c3ccc(C(=O)NS(=O)(=O)c4ccc(N[C@H](CCN5CCOCC5)CSc5ccccc5)c(S(=O)(=O)C(F)(F)F)c4)cc3)CC2)C1` + O=C(Nc1ccccc1)c1cc([N+](=O)[O-])ccc1Cl [GW9662] (first compound 2 µM, partner dose 10 µM) yielded a cell count of 67.8%. Molecule `CC1(C)CCC(c2ccc(Cl)cc2)=C(CN2CCN(c3ccc(C(=O)NS(=O)(=O)c4ccc(N[C@H](CCN5CCOCC5)CSc5ccccc5)c(S(=O)(=O)C(F)(F)F)c4)cc3)CC2)C1` + Nc1nc(F)nc2c1ncn2[C@@H]1O[C@H](CO)[C@@H](O)[C@@H]1O [fludarabine] (first compound 2 µM, partner dose 1 µM) has a cell count of 31.1%.
